Laboratory results: the supplement of paper PMC7125110
± gives the standard error. This sample is rich in variants without activity.

B1: glmS ribozyme (parent)
chain: AUAAAAGCGCCAGAACUACAGAAAUGUAGUUGACGAGGAGGAGGUUUAUCGAAUUUUCGGCGGAUGCCUCCAAA

Variants of: B1
Experiment: self-cleavage kobs at 10000 uM GlcN6P; higher = faster cleavage; RNA array
Conditions: with glucosamine-6-phosphate
Procedure, shortened: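 In situ transcription by E. coli RNA polymerase produced barcoded ribozyme variants on sequenced MiSeq chips, and a hybridised Cy3 probe tracked them at 37 °C. Glucosamine-6-phosphate was flowed in at 40 μM to 10 mM in HEPES/KCl/Mg(OAc)2 buffer. kcat and KM were taken from weighted Michaelis–Menten fits of kobs values from exponential decay fits.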

Point of comparison: A14G U30G U47C, “self-cleavage kobs at 10000 uM GlcN6P” value 0.00168 ± 0.00041 s⁻¹. Against it:
- A14G G43U C67U C71G — lower, < 1e-05 s⁻¹
- A36G G38U G43C C71U — lower, < 1e-05 s⁻¹
- C34A A39G C61U A64G — lower, < 1e-05 s⁻¹
- G38C A52C C61A — lower, < 1e-05 s⁻¹
- A42G A52C G60U C67A — lower, < 1e-05 s⁻¹
- C16A G38A A48C — lower, < 1e-05 s⁻¹
- C16U G63U — lower, < 1e-05 s⁻¹
- G40U G59C G63U — lower, < 1e-05 s⁻¹
- G29C U45A C58G G62A — lower, < 1e-05 s⁻¹
- A14U A33C G43C A52U G60A C67G — lower, < 1e-05 s⁻¹
- G43C U57G C58A — lower, < 1e-05 s⁻¹
- C34U G44U U54A G63C — lower, < 1e-05 s⁻¹
- U56G C58A G59A G63C C71G — lower, < 1e-05 s⁻¹
- G37C C70A — lower, < 1e-05 s⁻¹
- U31C U47G C70G — 35-fold lower, 4.82e-05 ± 1.5e-05 s⁻¹
- A36C G37C A42U G51U — lower, < 1e-05 s⁻¹
- A39U G63U U65A — lower, < 1e-05 s⁻¹
- A14C G38U A53U — lower, < 1e-05 s⁻¹
- C34U G43U U57G U65G — lower, < 1e-05 s⁻¹
- G32C G38U A42C G43C A52C — lower, < 1e-05 s⁻¹
- G13U U49A G62U A64C C71G — lower, < 1e-05 s⁻¹
- A15U G38U U57C C61U — lower, < 1e-05 s⁻¹
- G29C C34U G38A C71U — lower, < 1e-05 s⁻¹
- C50A G60C — lower, < 1e-05 s⁻¹
- A14U A48C C61G — lower, < 1e-05 s⁻¹
- U46G C68A — 54-fold lower, 3.1e-05 ± 1.1e-05 s⁻¹
- A39G U49G — 1.9-fold lower, 0.000904 ± 0.00021 s⁻¹
- A36C G38C A42C — lower, < 1e-05 s⁻¹
- A15G U31A A36G C58U — lower, < 1e-05 s⁻¹
- G51A A53C C58G — lower, < 1e-05 s⁻¹
- G29C G41C A48G G59U C68G — lower, < 1e-05 s⁻¹
- U31C G32U G41C U54C — lower, < 1e-05 s⁻¹
- U56C C68U C70A — lower, < 1e-05 s⁻¹
- G40A G44U U47G G60U C61U C68U — lower, < 1e-05 s⁻¹
- G32U G40C A42C G62A C70U — lower, < 1e-05 s⁻¹
- G32U G43U U69C — lower, < 1e-05 s⁻¹
- U31A A36U U47G C70G — 28-fold lower, 5.95e-05 ± 1.5e-05 s⁻¹
- C34G A64C C67A — lower, < 1e-05 s⁻¹
- U46G C61U G62A — lower, < 1e-05 s⁻¹
- A39C A48G C70A — lower, < 1e-05 s⁻¹
- C50U G62U G66U — lower, < 1e-05 s⁻¹
- U56C U65G U69A — lower, < 1e-05 s⁻¹
- G51A C71A — lower, < 1e-05 s⁻¹
- G32U C34U U49A — lower, < 1e-05 s⁻¹
- G38C A39U G41A — lower, < 1e-05 s⁻¹
- C34G G40A G51A G63A C68A — lower, < 1e-05 s⁻¹
- U47A G60U — lower, < 1e-05 s⁻¹
- U31A A39G G63C — lower, < 1e-05 s⁻¹
- A15C G41A A48G U49G — lower, < 1e-05 s⁻¹
- U45C U65G C70U — 7.5-fold lower, 0.000225 ± 6.1e-05 s⁻¹
- G29A U30A U49G G51A A52U G62U C67U — lower, < 1e-05 s⁻¹
- G37C G51C C58U G62U — lower, < 1e-05 s⁻¹
- U49G U57A G63A — lower, < 1e-05 s⁻¹
- A15G G37C G38U U46A — lower, < 1e-05 s⁻¹
- A14U G40A U54A — 6.9-fold lower, 0.000245 ± 8.4e-05 s⁻¹
- A14U U30G U31C — 2.4-fold lower, 0.000695 ± 0.00016 s⁻¹
- C50A A52G — lower, < 1e-05 s⁻¹
- A36U G38C G40A — lower, < 1e-05 s⁻¹
- A15C G63A C70U — lower, < 1e-05 s⁻¹
- U31C A42G G51A — lower, < 1e-05 s⁻¹
- G13U G38C C58U C61U — lower, < 1e-05 s⁻¹
- U30A G41U A53G C58A G59U G62A G66A C70U — lower, < 1e-05 s⁻¹
- U31C G40C U54C U56A A64U — lower, < 1e-05 s⁻¹
- G35C U46G C70U — lower, < 1e-05 s⁻¹
- G35C A42G U45G — lower, < 1e-05 s⁻¹
- A36U U45A C61G G62C U69G — lower, < 1e-05 s⁻¹
- A39G U45C C67A — 4.1-fold higher, 0.00692 ± 0.0024 s⁻¹
- C16U G40C A53C C71U — 3-fold lower, 0.000561 ± 0.00013 s⁻¹
- A64U U69C — 38-fold lower, 4.48e-05 ± 1.3e-05 s⁻¹
- G32U G38C U47C A52U — lower, < 1e-05 s⁻¹
- G29C A64C C71U — lower, < 1e-05 s⁻¹
- A39C U65G C68G — lower, < 1e-05 s⁻¹
- C16A U31A C71G — 42-fold lower, 4.01e-05 ± 1.1e-05 s⁻¹
- A15U G44U C61A — lower, < 1e-05 s⁻¹
- U55A G62C C71U — lower, < 1e-05 s⁻¹
- A39C U57C A64C — lower, < 1e-05 s⁻¹
- A15C U30A A36U — lower, < 1e-05 s⁻¹
- A15C G40U C50G — lower, < 1e-05 s⁻¹
- G35U A36U G44U C68G — lower, < 1e-05 s⁻¹
- G37U C58G G63U — lower, < 1e-05 s⁻¹
- C50U G59A U69C — lower, < 1e-05 s⁻¹
- U46C G51C — lower, < 1e-05 s⁻¹
- G41C G60C U69A — lower, < 1e-05 s⁻¹
- A42G U55A C68G — 23-fold lower, 7.44e-05 ± 2e-05 s⁻¹
- G13U U47A A48U U54C C58A — lower, < 1e-05 s⁻¹
- C16U A33G G41C U46G — lower, < 1e-05 s⁻¹
- U56G C58U C67A — 46-fold lower, 3.62e-05 ± 1.5e-05 s⁻¹
- A39U G41C A52C A53U U55G — lower, < 1e-05 s⁻¹
- A15U G44U — 55-fold lower, 3.08e-05 ± 1.4e-05 s⁻¹
- A15C U54A G59U — lower, < 1e-05 s⁻¹
- A15U G62C C70A — lower, < 1e-05 s⁻¹
- C34A G44U U46G C68A — lower, < 1e-05 s⁻¹
- A33U G41C A52U A53C — lower, < 1e-05 s⁻¹
- C16U A53U U65G — within error, 0.00246 ± 0.00058 s⁻¹
- G44A U56C C61U G63U — lower, < 1e-05 s⁻¹
- A14C G40U U56G — 5.1-fold higher, 0.00853 ± 0.0032 s⁻¹
- A36G G40A G51U G62C G66C — lower, < 1e-05 s⁻¹
- G51A G60U C70U — lower, < 1e-05 s⁻¹
- A36C A39U A64C C71U — lower, < 1e-05 s⁻¹
- U49G U55A C61A G66U C71U — lower, < 1e-05 s⁻¹
- U30C G41A G43U — lower, < 1e-05 s⁻¹
- C34A G40C A42U — lower, < 1e-05 s⁻¹
- A48C G62U C67U C71G — lower, < 1e-05 s⁻¹
- C34A G38U U47C U57A — lower, < 1e-05 s⁻¹
- G37A U45A C61U C67U — lower, < 1e-05 s⁻¹
- A42G U55C G60A — 38-fold lower, 4.43e-05 ± 1.7e-05 s⁻¹
- A42C G44A U45G A52C C68G — lower, < 1e-05 s⁻¹
- G37A G60C — lower, < 1e-05 s⁻¹
- A36U G59U G60A G62A — lower, < 1e-05 s⁻¹
- G13U G38A U57C C58U C61G — lower, < 1e-05 s⁻¹
- C16G G38A C67A C71U — lower, < 1e-05 s⁻¹
- C19A U31G A42C — lower, < 1e-05 s⁻¹
- G37C A48G U49A — lower, < 1e-05 s⁻¹
- A14C G35A U54G G59A G63C — lower, < 1e-05 s⁻¹
- U57C C61U C71A — lower, < 1e-05 s⁻¹
- U31C C68A C70G C71G — lower, < 1e-05 s⁻¹
- G37U C70A — lower, < 1e-05 s⁻¹
- G29A C58U C70U — 28-fold lower, 5.99e-05 ± 1.7e-05 s⁻¹
- A48U G59C G62U C67G C70G — lower, < 1e-05 s⁻¹
- A14G C50G C70U — 18-fold lower, 9.53e-05 ± 1.4e-05 s⁻¹
- A36C G51U G59A C71A — lower, < 1e-05 s⁻¹
- A39C G43A G60A C68U — lower, < 1e-05 s⁻¹
- G38U A39C G40U G43U U54C — lower, < 1e-05 s⁻¹
- G13U C50U G60U — lower, < 1e-05 s⁻¹
- A15U G32C G62C C71G — lower, < 1e-05 s⁻¹
- C16A U31C G60A C61U — lower, < 1e-05 s⁻¹
- U31A G59C C67A — lower, < 1e-05 s⁻¹
- G38U C50G C71A — 17-fold lower, 9.8e-05 ± 1.9e-05 s⁻¹
- U30C G51A — lower, < 1e-05 s⁻¹
- A15G G29C G44U U69G — lower, < 1e-05 s⁻¹
- A48C C50G — lower, < 1e-05 s⁻¹
- A39C G63U C71U — lower, < 1e-05 s⁻¹
- A15C G37C G38U A52U U56G — lower, < 1e-05 s⁻¹
